The source of these data is paper PMC3445539.

Chains of the proteins cited; added tags and fusions are not shown.
UniProt Q7L2Z9: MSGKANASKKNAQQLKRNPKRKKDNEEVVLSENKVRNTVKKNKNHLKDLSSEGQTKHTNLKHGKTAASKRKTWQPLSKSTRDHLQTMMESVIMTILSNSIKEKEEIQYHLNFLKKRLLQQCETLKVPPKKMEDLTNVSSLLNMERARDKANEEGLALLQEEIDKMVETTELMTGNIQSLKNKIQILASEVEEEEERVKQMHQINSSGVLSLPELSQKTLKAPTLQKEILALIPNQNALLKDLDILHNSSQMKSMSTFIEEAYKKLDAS

No constants are given. Whether binding was seen depends on the method and setting. In cells and extracts the contact can be indirect. Some binding calls cover weakened binding; strength is not graded here. Tags and fused reporters may be left off the sequences shown.

The assay concerns the target CENP-Q-mCherry (human) (UniProt Q7L2Z9). In words: FRET or BRET; acceptor photo-bleaching FRET, EGFP donor and mCherry acceptor, at kinetochores of living co-transfected HEp-2 cells in interphase. Background: Bioluminescence resonance energy transfer reports proximity on the nanometre scale.

B1: EGFP-CENP-B (protein, UniProt P07199 1-599)
chain: MGPKRRQLTFREKSRIIQEVEENPDLRKGEIARRFNIPPSTLSTILKNKRAILASERKYGVASTCRKTNKLSPYDKLEGLLIAWFQQIRAAGLPVKGIILKEKALRIAEELGMDDFTASNGWLDRFRRRHGVVSCSGVARARARNAAPRTPAAPASPAAVPSEGSGGSTTGWRAREEQPPSVAEGYASQDVFSATETSLWYDFLPDQAAGLCGGDGRPRQATQRLSVLLCANADGSEKLPPLVAGKSAKPRAGQAGLPCDYTANSKGGVTTQALAKYLKALDTRMAAESRRVLLLAGRLAAQSLDTSGLRHVQLAFFPPGTVHPLERGVVQQVKGHYRQAMLLKAMAALEGQDPSGLQLGLTEALHFVAAAWQAVEPSDIAACFREAGFGGGPNATITTSLKSEGEEEEEEEEEEEEEEGEGEEEEEEGEEEEEEGGEGEELGEEEEVEEEGDVDSDEEEEEDEESSSEGLEAEDWAQGVVEAGGSFGAYGAQEEAQCPTLHFLEGGEDSDSDSEEEDDEEEDDEDEDDDDDEEDGDEVPVPSFGEAMAYFAMVKRYLTSFPIDDRVQSHILHLEHDLVHVTRKNHARQAGVRGLGHQS
With B1, the binding entry is on record as “binds”.
